We go through 30 compounds from PubChem BioAssay AID1745853 (National Center for Advancing Translational Sciences (NCATS), 2022).

Molecules are shown by their SMILES. The list shows a part of the results. Shown are side measurements of this screen, not its main read-out; they come without a call.

What all share (assay): Primary Screen for Target Class Profiling of Small Molecule Inhibitors of Methyltransferases
In test [1] the target is Glycine N-methyltransferase (Homo sapiens) (UniProt Q14749). The settings on record: purified enzyme, MTase-Glo SAH luminescence; measured here: GNMT inhibition; at 40 µM; stronger effect = lower value. A digest of the protocol: (§1)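 Each enzyme was reacted with SAM and its substrate, with compounds tested once at 40 uM; SAH formed was read by MTase-Glo luminescence.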
Test [2] has as its target Guanidinoacetate N-methyltransferase (Homo sapiens) (UniProt Q14353). The settings on record: purified enzyme, MTase-Glo SAH luminescence; measured here: GAMT inhibition; at 40 µM; stronger effect = lower value. The essentials: as §1
The target of test [3] is Histamine N-methyltransferase (Homo sapiens) (UniProt P50135). The settings on record: purified enzyme, MTase-Glo SAH luminescence; measured here: HNMT inhibition; at 40 µM; stronger effect = lower value. A digest of the protocol: as §1
The target in test [4] is Nicotinamide N-methyltransferase (Homo sapiens) (UniProt P40261). Particulars: purified enzyme, MTase-Glo SAH luminescence; measured here: NNMT inhibition; at 40 µM; stronger effect = lower value. A digest of the protocol: as §1
In test [5] the target is Phenylethanolamine N-methyltransferase (Homo sapiens) (UniProt P11086). Particulars: purified enzyme, MTase-Glo SAH luminescence; measured here: PNMT inhibition; at 40 µM; stronger effect = lower value. A digest of the protocol: as §1
On the % scale 0 is the no-effect control and ±100 the full control effect.

On to `NCCSSCCN`, for which the activity change, negative = inhibition is -5.94% in test [1]; 7.9% in test [2]; -11.9% in test [3]; -2.02% in test [4]; 6.97% in test [5].

As for `CC1CCC(NC(=O)C2(C)Cn3c(cc4occc43)C(=O)N2Cc2ccccc2Cl)CC1` (stereo not given), the activity change, negative = inhibition in test [1] was -7.37%; in test [2], -1.91%; in test [3], -1.7%; in test [4], -15.9%; in test [5], -4.98%.

Consider `CC(C)(C)c1cc(C[C@H]2CNCC[C@H]2CC(=O)N2CCC(Cc3ccccc3)CC2)no1`, for which the activity change, negative = inhibition in test [1] was -3.17%; in test [2], 0.666%; in test [3], -4.73%; in test [4], -18.5%; in test [5] it was 14%.

Consider `CN(C)C(=O)CNC(=O)c1cccc(S(=O)(=O)NCCn2ccnc2)c1`, for which the activity change, negative = inhibition was -4.97% in test [1]; -4.66% in test [2]; -2.73% in test [3]; -7.65% in test [4]; 5.2% in test [5].

As to `Cc1cc(NC2CCCCC2)nc(-n2nc(C)cc2C)n1`, the activity change, negative = inhibition in test [1] was -5.67%; in test [2], 6.07%; in test [3], -2.9%; in test [4] it was -7.09%; in test [5] it was 7.61%.

As for `C=CC1C(OC2OC(CO)C(O)C(O)C2O)OC=C(C(=O)OC)C1CC1CC(=O)CC(CCc2ccc(O)cc2)O1` (stereo not given), the activity change, negative = inhibition is -1.95% in test [1]; -5.42% in test [2]; -1.1% in test [3]; -12.9% in test [4]; -11.9% in test [5].

`CC(=O)Nc1c2n(c3ccccc13)CC(C)(C(=O)NCCC(C)C)N(Cc1ccc(F)cc1)C2=O` (stereo not given): the activity change, negative = inhibition in test [1] is -0.405%; in test [2], 2.61%; in test [3], 5.11%; in test [4], 8.12%; in test [5] it was 4.25%.

Turning to `CCC1(O)CCC12CCN(C(=O)C1CCCC1)CC2` (stereo not given), the activity change, negative = inhibition in test [1] is -3.52%; in test [2], -5.89%; in test [3] it was -1.95%; in test [4], -6.57%; in test [5], 2.45%.

As to `COc1ccc(C(=O)O[C@H]2C=COC=C3C=C4C(=O)N(C)C(=S)C(=O)N4[C@@H]32)cc1Oc1cc(C=O)ccc1O`, the activity change, negative = inhibition was 4.16% in test [1]; 8.58% in test [2]; 10% in test [3]; -4.57% in test [4]; 6.09% in test [5].

With `CC(C)NC(=O)c1nc(-c2ccc([S+](C)(=O)[O-])cc2)c2ccccn12`, the activity change, negative = inhibition is -3.56% in test [1]; -2.08% in test [2]; -1.25% in test [3]; -1.6% in test [4]; -4.79% in test [5].

For the compound `CC1(C(=O)NC2CCCCCCC2)Cn2c(cc3occc32)C(=O)N1c1cccc(F)c1` (stereo not given), the activity change, negative = inhibition in test [1] is 2.27%; in test [2], -6.03%; in test [3], 6.37%; in test [4], -0.778%; in test [5], 2.69%.

`CC1(C(=O)NC2CCCCCC2)Cn2c(c(-n3cccc3)c3ccccc32)C(=O)N1CC1CCCO1` (stereo not given): the activity change, negative = inhibition in test [1] is 1.35%; in test [2], 2.33%; in test [3] it was 7.7%; in test [4], -36.1%; in test [5] it was 2.62%.

As for `COc1ccccc1NC(=O)Cn1nc2n(Cc3ccccc3)c(=O)c3ccccc3n2c1=O`, the activity change, negative = inhibition in test [1] was 1.65%; in test [2], 0.058%; in test [3], 4.32%; in test [4], -1.99%; in test [5], -0.376%.

For the compound `Cn1c(=O)c2ccc(C(=O)NC3CCCC3)cc2n2c(=O)n(Cc3ccc(N4CCCC4=O)cc3)nc12`, the activity change, negative = inhibition in test [1] was -3.65%; in test [2], -3.84%; in test [3] it was 6.44%; in test [4], -4.97%; in test [5], -4.91%.

With `COc1ccc(-c2cn3c(n2)CO[C@@H](CNC(=O)CCC(=O)O)C3)cc1`, the activity change, negative = inhibition in test [1] was -1.25%; in test [2] it was 3.38%; in test [3], -1.15%; in test [4] it was -5.46%; in test [5] it was -5.88%.

As to `Cn1nnnc1SCCNCc1ccc2c(c1)n(C)c(=O)n2C`, the activity change, negative = inhibition is 0.876% in test [1]; 0.147% in test [2]; 1.27% in test [3]; 4.96% in test [4]; -1.18% in test [5].

Turning to `Cc1ccc(CN2C(=O)c3cc4ccccc4n3CC2(C)C(=O)NCCCOC(C)C)cc1` (stereo not given), the activity change, negative = inhibition was 2.2% in test [1]; 1.73% in test [2]; 3.47% in test [3]; 8.66% in test [4]; -1.68% in test [5].

On to `Cc1c(F)ccc(C(=O)Nc2cc([N+](=O)[O-])ccc2N2CCN(C)CC2)c1Cl`, for which the activity change, negative = inhibition is 2.15% in test [1]; 0.454% in test [2]; 4.33% in test [3]; -13.6% in test [4]; -4.86% in test [5].

Turning to `COc1ncccc1-c1nc(-c2c(C)noc2C)cc2cc(CN(C)C)oc12`, the activity change, negative = inhibition in test [1] is -3.72%; in test [2], -3.3%; in test [3] it was -2.09%; in test [4] it was -8.35%; in test [5], -3.58%.

As to `CC(C)n1cnc2c(-c3cnc(N)nc3)nc(N3CCOCC3)nc21`, the activity change, negative = inhibition is 8.08% in test [1]; 4.66% in test [2]; 12% in test [3]; -2.73% in test [4]; 9.21% in test [5].

Turning to `CCOC(=O)c1cc2n(n1)CC(C)(C(=O)NC1CCCC1)N(c1ccc(OC)cc1)C2=O` (stereo not given), the activity change, negative = inhibition in test [1] is -0.229%; in test [2], 2.66%; in test [3] it was -2.28%; in test [4], 2.25%; in test [5] it was -1.67%.

As for `CCC1CN(S(=O)(=O)c2ccc3[nH]c4c(c3c2)CCCC4)c2cc(C)ccc2O1` (stereo not given), the activity change, negative = inhibition is 4.96% in test [1]; 2.43% in test [2]; -2.67% in test [3]; -5.84% in test [4]; 2.57% in test [5].

Consider `CCc1ccccc1Nc1nn2c(=O)c3ccc(C(=O)NC4CCCCC4C)cc3nc2s1` (stereo not given), for which the activity change, negative = inhibition in test [1] was 4.13%; in test [2], 0%; in test [3], 2.38%; in test [4] it was -1.86%; in test [5], 1.89%.

Consider `CC(C)Cn1c(=O)c2ccc(C(=O)NC3CCCCC3)cc2n2c(=O)n(Cc3ccc(F)cc3)nc12`, for which the activity change, negative = inhibition came to 6.19% in test [1]; 1.82% in test [2]; 4.99% in test [3]; 6.98% in test [4]; 1.69% in test [5].

Consider `Cc1ccc(-c2cc3c(=O)n(CCNC(=O)c4cc(F)ccc4F)ccn3n2)c(C)c1`, for which the activity change, negative = inhibition in test [1] came to 1.05%; in test [2] it was 1.99%; in test [3], 1.48%; in test [4] it was 4.52%; in test [5] it was 0.471%.

Consider `CC(C)CCNC(=O)CCc1nnc2n(CCCOC(C)C)c(=O)c3ccccc3n12`, for which the activity change, negative = inhibition in test [1] is -6.34%; in test [2], 0.522%; in test [3] it was 3.61%; in test [4], 0.923%; in test [5], -3.38%.

On to `O=C(Nc1cccc(C(F)(F)F)c1)N[C@H]1[C@H](O)[C@@H](Oc2ccccc2)[C@@H]2OC[C@H]1O2`, for which the activity change, negative = inhibition was -3.87% in test [1]; 5.71% in test [2]; 2.49% in test [3]; -8.03% in test [4]; 3.04% in test [5].

For `CC1CCC(NC(=O)C2(C)Cn3c(nc4ccccc43)C(=O)N2Cc2cccnc2)CC1` (stereo not given), the activity change, negative = inhibition in test [1] was -0.469%; in test [2] it was 1.51%; in test [3], -2.62%; in test [4], -3.09%; in test [5] it was -5.58%.

With `Cc1csc(CN(C)C(=O)CC(c2ccccc2)c2ccc3c(c2)OCO3)n1` (stereo not given), the activity change, negative = inhibition in test [1] was -4.95%; in test [2] it was -1.36%; in test [3], 0.415%; in test [4], -8.82%; in test [5], 2.72%.

`COc1ccc(CN2CCCCC23Cc2ccccc2CN(C(C)=O)C3)cc1` (stereo not given): the activity change, negative = inhibition is -2.69% in test [1]; 0.333% in test [2]; -0.995% in test [3]; -1.93% in test [4]; -0.817% in test [5].
